# Test results published in the supplement of paper PMC11417369.
# This is one part of the list.
# Tested on: PF3D7_0420300 AP2 domain 1 (GST-tagged)
# Assay: gcPBM binding intensity (ln(normalized median fluorescence intensity)); higher = stronger DNA binding
# How it was run: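 Each value is the highest Masliner-normalised natural-log median intensity across replicate spots of either orientation of a probe. The probes were primer-extended double-stranded 36-bp intergenic genomic sequences on an Agilent 4 × 180k array, alongside negative controls, exposed for 1 h to GST-tagged P. falciparum DNA-binding domains expressed in E. coli. Bound protein was picked up with Alexa488 anti-GST antibody and scanned at 488 nm.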
row,Sequence,gcPBM binding intensity (ln)
1,TAACACCAAACTAAATGTACACACATACATAAATAT [XGTACX_site2201],9.76
2,TCTTATATGATATTTATTTATTTATTTATTTATTCA [GTGCAC_negctrl_site686],9.23
3,TAAATGTGAACAATAGAAGTAATAAGAAGAATAAAA [CACACA_negctrl_site1080],9.38
4,AATGAATAATTATTTTGTACATAATATTATATTTAT [XGTACX_site5350],9.19
5,TTTATTTTTTGTGGCACACAGAAGAAACAAGAACAA [CACACA_site1696],9.45
6,AATAGTAATTTGAATACACACAATAATATATTTATA [CACACA_site7055],9.48
7,TCTGTATATTATTCAAGTACACAATATAAATATAAA [XGTACX_site7241],9.09
8,TATTGTTTTTTTTACTGTACACAAGTAAATGAAAAA [XGTACX_site790],8.73
9,AAAAAATTCAAAAGGTGTACAACATTATATTATTCC [XGTACX_site5118],9.42
10,GTATATAATTAAAGTTGTACCCTTAAAAAAGGGAAA [XGTACX_site7278],8.86
11,AAAAATAAAAAAATAAATACGTATACATATATAATA [TGCATGCA_negctrl_site551],9.41
12,GAACAAATTAAATAGGTGCATTAACATGTTCTATTT [GTGCAC_site9729],9.29
13,GATAACTTTTTTCTCACACACAAATATTTTAATCAT [CACACA_site7685],9.8
14,TATAATTATATGTATACACACACATACATTTACATA [CACACA_site9061],9.87
15,AAAATGAAAATGAAAATGAAAATGGGAAAATGTCAA [TGCATGCA_negctrl_site488],9.48
16,TAAATAAAAAAGAATACACACAGCATGCATAAATAT [CACACA_site237],9.92
17,TTATATATAAGTTTATTCATTTTTTTTTTTTTTTTT [XGTACX_negctrl_site573],8.92
18,CATATATATCGTAATGCACACATGTAATTTCATAAT [CACACA_site811],9.43
19,TATCATATATAAAGAGGTACGTAAGAATAGAAAATT [XGTACX_site798],9.76
20,TAAATACATAAATACACACACATATATTATATATAT [CACACA_site4310],9.89
21,ATATTAACTATCATAACACACACAGTAGACATATTT [CACACA_site6941],9.89
22,TTCTTAAAAGGAAAGGTGCAACTTTATCATTTTCTT,8.98

row,Sequence,gcPBM binding intensity (ln)
1,TTTTTCATTTCTGCATTTATTTATAAATAAATATTT [CACACA_negctrl_site368],9.29
2,ATATATATTATATAAGTGCATAATATTCTTTCTTTT,9.23
3,TATATATTTTGTGTCTGTACACATATTATTAATTCC [XGTACX_site7507],9.26
4,TTTTTTTATCAATGTTGTACTTTTTTTTTTTTCCAT [XGTACX_site8864],9.39
5,TACACGCATGGACACACACACACACCCATATATATA [CACACA_site4522],10.2
6,TATAAGAGAATATATACACACAAAAATATATACAGT [CACACA_site1668],9.89
7,TTCAAATATAAATACACACACATAGCTACAAAATAA [CACACA_site4172],10
8,AAATTATTAAGTGATATAATATTCTATAGATGGGGA [CACACA_negctrl_site168],9.3
9,TATATGATATAATATACACACATACAGATATATATA [CACACA_site4440],9.55
10,AGAGGTAGAGAGAAAACATGCATAATGATTTTCATA [TGCATGCA_site958],9.15
11,TAGAGGTATAAAATATGTACTTATAAAAACATGAAT [XGTACX_site8916],9.31
12,TTTTCCAATTTAAAAGCATGCATCTGTTTTTTTTTT [TGCATGCA_site482],9.12
13,ACATATAAATAAATAAATATATATATATATATATAT [GTGCAC_negctrl_site378],9.13
14,TATTTACACCTAATCACAAATAAAATAAAATCAAAT [CACACA_negctrl_site531],9.33
15,TAAATCAAAATAATTTAACACACAATTTTAATACTG [CACACA_site8744],9.37
16,GATAAGGTATTCAAATGTACAAAATGTTTTATATAA [XGTACX_site6863],9.19
17,TATGAAATTTTAATTACACACAGGAAAATAAAATGG [CACACA_site4935],9.57
18,TAAAAAAAATATTTTTGTACGAATTAAATTTTTTTT [XGTACX_site4838],8.79
19,ACATATTTTTAATACACACTCAAAAAAGTACTTAAC [CACACA_site3014],9.47
20,AAAAAAAGTAAATGTTGTACTATAATATGTAATATA [XGTACX_site7966],9.28
21,TACATATATATTATATGTACTTATATTTTTATAATA [XGTACX_site3452],9.13
22,ATATACATATCCATATTTATATCTATATTTAAAACA [CACACA_negctrl_site747],9.22

row,Sequence,gcPBM binding intensity (ln)
1,AACCACATACATATAACACACATATACAATCTATAT [CACACA_site1987],9.85
2,AAATAACACTAATGATGTACTCAACTATTTATAATT [XGTACX_site8183],9.47
3,TTGACACGTATATGCACACACCCGTAAGTGTCCATT [CACACA_site2764],9.56
4,ATATTTTATTATTGTTGTACTTTTTTTTGATTGTTT [XGTACX_site4090],9.61
5,TTTTTTATGAACACGTCACACATCATTAAAATGTTT [CACACA_site5934],9.2
6,TCACACATATATTCATGTACATATTAATATTTCCAT [XGTACX_site5387],9.47
7,TTTAATATTTTTCAATGTAGAAAGTTTGTCTGTTAT [CACACA_negctrl_site973],9.09
8,AGTTATAAACATATGTGTACTTATAAAAACATATAG [XGTACX_site3268],9.37
9,TTGATGATATAAAAAAGTACTTATATTATATTATAT [XGTACX_site6492],9.07
10,TTTTGTAAAAAAAAAAAAAAAGGAAAATTAAAATAA [CACACA_negctrl_site803],8.85
11,TTTCCTATTTAATATAGTACATAAGAAATAATTTTA [XGTACX_site5952],8.72
12,CTTGTATTTAAACACACACACACTTTCTTTTTTTAA [CACACA_site5133],9.84
13,TTAATATTAATATATTGTACATATATGCACATATTT [XGTACX_site6569],9.19
14,AACGTTCATATTTCCACACACAAAAAATAAATATAA [CACACA_site3344],9.68
15,AATATTATAATATAAACACACAAAATTCAATTATAT [CACACA_site3789],9.69
16,AAAAATAAAGGGCGAAAAAAAAAAAAAAAAAAAAAA [GTGCAC_negctrl_site671],8.38
17,AAAATATATTATATATGTACATATTACGTTTTAATT [XGTACX_site2518],9.22
18,CAATTTTAAGTAATCAATTTTTTTAAAAAACACAAA [CACACA_negctrl_site961],8.97
19,TTAAAACCAAAACACAGTACATATATATATATATAT [XGTACX_site5668],9.4
20,TATATATATATGTATACACACATATGTATGTTATGT [CACACA_site4053],9.6
21,TTTGTTAATTATAAATGTACATATTATATATATATA [XGTACX_site8870],9.18
22,GCATAATATACTCTTACACACCATTTCTATATACAT [CACACA_site6799],9.86

row,Sequence,gcPBM binding intensity (ln)
1,TTGTTTTTAGTTTATACACACCATATTAATATAATG [CACACA_site7452],9.47
2,ATTTGGCATGGACACACACACACACCGACAGACATA [CACACA_site4491],10.2
3,TTATATTATGGACACACACACAAAAAAAAAAAAAAA [CACACA_site7744],9.61
4,ATATATATATAAAGTTGTACATTTTTTATTTTTTCA [XGTACX_site7847],9.12
5,AAATTAATTAAATATACACACATATATAAATATATA [CACACA_site391],9.38
6,TTTTTTTTTTAAAAAACACACACCTAAACAAGATAT [CACACA_site875],9.59
7,ATATATATATATATTTGTACATATATATAATTTTTC [XGTACX_site7460],9.05
8,TATAATTGTCTTCACACACACATATATATATATATA [CACACA_site2743],9.84
9,AAAATAAAAAAAAAAGGTACACAAAAAGATGGACTG [XGTACX_site2650],9.47
10,ATGTTGTCAAAAAAATGTACTTACATAATATTTTCC [XGTACX_site1732],9.12
11,CGCATACACCAACACACACACACATATATATATATA [CACACA_site635],10.2
12,TATAAATACTTATATGTACACACATATAGATATATA [CACACA_site8819],9.36
13,TAGATCTTATTTACAAGTACATATATACGATTCATT [XGTACX_site7578],9.15
14,AGAAGTCTGTAATGATGTACTGGAAAAATATAAATA [XGTACX_site8148],8.97
15,ATCTAATATATATTCTGTACGTAATTAAAACCACAA [XGTACX_site3152],9.29
16,ATTAATAATATTCCTTGTACATGATTTTTCTAAATA [XGTACX_site7099],9.07
17,TATAAATATAAATACACACACACATCAATACAGATA [CACACA_site5850],10.1
18,TGTGTTAATAGAAAAAGTACATATACATATATATAT [XGTACX_site4951],9.25
19,TGCACAGACGGACACACACACAACTAAAAAATAATG [CACACA_site5424],9.98
20,AATGAATTAATAGCTACACACGGTAACATAATAACT [CACACA_site851],9.73
21,TCTTTTGAACAAATTTGTACGTATATAAAAATATTT [XGTACX_site6547],9.07
22,TATAATAATGCCTTTACATGCAATAATAAAGAAATA [TGCATGCA_site631],8.99
